We go through 35 compounds from the supplement of paper PMC4604168 (melanoma cell lines).

The list shows a part of the results. Most values come without repeats; read them as rough.
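Also: cell number obtained by counting DAPI-stained nuclei in high-throughput microscope images with image analysis software, screen run in 1,536-well plates.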

The subject of the assay is RVH-421. As to the kind of experiment: cell count relative to DMSO control; melanoma cells; higher = more viable cells. The note with it: library dose: low library concentration; 72 h.
In the case of `CC(C)(C)c1cnc(CSc2cnc(NC(=O)C3CCNCC3)s2)o1` + COc1ccc2c(c1)CCC1C2CCC2(C)C(NCCCCCCN3C(=O)C=CC3=O)CCC12 [U73122] (first compound 0.01 µM, partner dose 0.4 µM), the cell count worked out at 113%.
Compound `CC(C)(C)c1cnc(CSc2cnc(NC(=O)C3CCNCC3)s2)o1` + Oc1cc(-c2nc(-c3ccccc3)[nH]c2-c2ccncc2)ccc1Cl [L779450] (first compound 0.01 µM, partner dose 0.2 µM) yielded a cell count of 97.9%.
With `CC(C)(C)c1cnc(CSc2cnc(NC(=O)C3CCNCC3)s2)o1` + Cn1cc(/C=C2\C(=O)Nc3cccnc32)c2ccccc21 [GW441756] (first compound 0.01 µM, partner dose 0.4 µM), the cell count was determined as 81.8%.
The same measure for `CN(NC(=O)CC(=O)NN(C)C(=S)c1ccccc1)C(=S)c1ccccc1` + COc1cc2ncnc(Nc3ccc(Oc4ccccc4)cc3)c2cc1OC [SrcI1] (first compound 0.006 µM, partner dose 2 µM): 98.6%; for `CCc1ccc(CCOc2ccc(CC3SC(=O)NC3=O)cc2)nc1` (stereo not given) [pioglitazone] + c1cc(-c2cnn3cc(-c4ccc(OCCN5CCCCC5)cc4)cnc23)ccn1 [Dorsomorphin] (first compound 2 µM, partner dose 0.4 µM): 92.9%.
For the compound `Cc1ccc(NC(=O)c2cccc(N(C)C)c2)cc1NC(=O)c1ccc(O)cc1` + Cn1cc(/C=C2\C(=O)Nc3cccnc32)c2ccccc21 [GW441756] (first compound 2 µM, partner dose 0.4 µM), the cell count turned out to be 93.6%.
The figure for `CN(NC(=O)CC(=O)NN(C)C(=S)c1ccccc1)C(=S)c1ccccc1` + O=c1cc(-c2cccc3c2Sc2ccccc2S3)oc(N2CCOCC2)c1 [KU55933] (first compound 0.006 µM, partner dose 1 µM) is 129%; for `CC(C)(C)c1cnc(CSc2cnc(NC(=O)C3CCNCC3)s2)o1` + O=C1NC(=O)/C(=C/c2ccc(-c3ccc(F)cc3O)o2)S1 [AS252424] (first compound 0.01 µM, partner dose 1 µM) it is 90.2%.
Compound `CN(NC(=O)CC(=O)NN(C)C(=S)c1ccccc1)C(=S)c1ccccc1` + O=C(Nc1ccccc1)c1cc([N+](=O)[O-])ccc1Cl [GW9662] (first compound 0.006 µM, partner dose 2 µM) registered a cell count of 108%.
The compound `COc1cc2c(Oc3ccc4[nH]c(C)cc4c3F)ncnc2cc1OCCCN1CCCC1` [cediranib] + O=C(O)C(=O)Nc1sc2c(c1C(=O)O)CCNC2 [TCS401] (first compound 0.4 µM, partner dose 1.66667 µM) registered a cell count of 88%.
For `CC(C)(C)c1cnc(CSc2cnc(NC(=O)C3CCNCC3)s2)o1` + O=c1cc(-c2cccc3c2Sc2ccccc2S3)oc(N2CCOCC2)c1 [KU55933] (first compound 0.01 µM, partner dose 1 µM), the cell count was 94.2%.
The figure for `COc1cc2c(Oc3ccc4[nH]c(C)cc4c3F)ncnc2cc1OCCCN1CCCC1` [cediranib] + CCc1ccc(CCOc2ccc(CC3SC(=O)NC3=O)cc2)nc1 [pioglitazone] (first compound 0.4 µM, partner dose 2 µM) is 87.1%; for `CN(NC(=O)CC(=O)NN(C)C(=S)c1ccccc1)C(=S)c1ccccc1` + O=C(O)C(=O)Nc1sc2c(c1C(=O)O)CCNC2 [TCS401] (first compound 0.006 µM, partner dose 1.66667 µM) it is 85.6%; for `CN(NC(=O)CC(=O)NN(C)C(=S)c1ccccc1)C(=S)c1ccccc1` + Cn1cc(/C=C2\C(=O)Nc3cccnc32)c2ccccc21 [GW441756] (first compound 0.006 µM, partner dose 0.4 µM) it is 88.3%.
As for `Cc1ccc(NC(=O)c2cccc(N(C)C)c2)cc1NC(=O)c1ccc(O)cc1` + CCc1ccc(CCOc2ccc(CC3SC(=O)NC3=O)cc2)nc1 [pioglitazone] (first compound 2 µM, partner dose 2 µM), the cell count was determined as 89.6%.
The same measure for `COc1cc2c(Oc3ccc4[nH]c(C)cc4c3F)ncnc2cc1OCCCN1CCCC1` [cediranib] + N#Cc1c(O)c2c(-c3ccc(-c4ccccc4O)cc3)csc2[nH]c1=O [A769662] (first compound 0.4 µM, partner dose 2 µM): 116%; for `CCc1ccc(CCOc2ccc(CC3SC(=O)NC3=O)cc2)nc1` (stereo not given) [pioglitazone] + Cc1cc([N+](=O)[O-])ccc1NS(=O)(=O)c1cc(Cl)ccc1Cl [FH535] (first compound 2 µM, partner dose 1 µM): 79.5%.
`CCc1ccc(CCOc2ccc(CC3SC(=O)NC3=O)cc2)nc1` (stereo not given) [pioglitazone] + COC(=O)c1sccc1S(=O)(=O)Nc1ccc(Nc2ccccc2)cc1OC [GSK0660] (first compound 2 µM, partner dose 1 µM) came in with a cell count of 86.8%.
`COc1cc2c(Oc3ccc4[nH]c(C)cc4c3F)ncnc2cc1OCCCN1CCCC1` [cediranib] + COc1ccc(COc2ccc(Cc3cnc(N)nc3N)cc2OC)cc1 [GW2580] (first compound 0.4 µM, partner dose 1 µM): the cell count stood at 90.5%.
The same measure for `Cc1ccc(NC(=O)c2cccc(N(C)C)c2)cc1NC(=O)c1ccc(O)cc1` + COc1ccc2c(c1)CCC1C2CCC2(C)C(NCCCCCCN3C(=O)C=CC3=O)CCC12 [U73122] (first compound 2 µM, partner dose 0.4 µM): 122%; for `CN(NC(=O)CC(=O)NN(C)C(=S)c1ccccc1)C(=S)c1ccccc1` + CCc1ccc(CCOc2ccc(CC3SC(=O)NC3=O)cc2)nc1 [pioglitazone] (first compound 0.006 µM, partner dose 2 µM): 103%; for `CN(NC(=O)CC(=O)NN(C)C(=S)c1ccccc1)C(=S)c1ccccc1` + Oc1nc(-c2ccc(C(F)(F)F)cc2)nc2c1CSCC2 [XAV939] (first compound 0.006 µM, partner dose 2 µM): 59.8%.
The compound `CCc1ccc(CCOc2ccc(CC3SC(=O)NC3=O)cc2)nc1` (stereo not given) [pioglitazone] + CCN(CC)CCCCNc1ncc2cc(-c3cc(OC)cc(OC)c3)c(NC(=O)NC(C)(C)C)nc2n1 [PD173074] (first compound 2 µM, partner dose 0.1 µM) gave a cell count of 98.8%.
The same measure for `CN(NC(=O)CC(=O)NN(C)C(=S)c1ccccc1)C(=S)c1ccccc1` + Cc1cc([N+](=O)[O-])ccc1NS(=O)(=O)c1cc(Cl)ccc1Cl [FH535] (first compound 0.006 µM, partner dose 1 µM): 78.8%; for `CC(C)(C)c1cnc(CSc2cnc(NC(=O)C3CCNCC3)s2)o1` + CCCCCCCCCCCC1=C(O)C(=O)C=C(O)C1=O [Embelin] (first compound 0.01 µM, partner dose 1.2 µM): 100%; for `Cc1ccc(NC(=O)c2cccc(N(C)C)c2)cc1NC(=O)c1ccc(O)cc1` + O=C1NC(=O)/C(=C/c2ccc(-c3ccc(F)cc3O)o2)S1 [AS252424] (first compound 2 µM, partner dose 1 µM): 101%.
The figure for `CC(C)(C)c1cnc(CSc2cnc(NC(=O)C3CCNCC3)s2)o1` + CCN(CC)CCCCNc1ncc2cc(-c3cc(OC)cc(OC)c3)c(NC(=O)NC(C)(C)C)nc2n1 [PD173074] (first compound 0.01 µM, partner dose 0.1 µM) is 99.4%.
In the case of `Cc1ccc(NC(=O)c2cccc(N(C)C)c2)cc1NC(=O)c1ccc(O)cc1` + COc1ccc(-c2ccc3c(N4CCOCC4)nc(N4C[C@@H](C)O[C@@H](C)C4)nc3n2)cc1CO [KU0063794] (first compound 2 µM, partner dose 0.02 µM), the cell count was 103%.
`Cc1ccc(NC(=O)c2cccc(N(C)C)c2)cc1NC(=O)c1ccc(O)cc1` + O=C(Nc1ccccc1)c1cc([N+](=O)[O-])ccc1Cl [GW9662] (first compound 2 µM, partner dose 2 µM) gave a cell count of 105%.
`CCc1ccc(CCOc2ccc(CC3SC(=O)NC3=O)cc2)nc1` (stereo not given) [pioglitazone] + COc1ccc(-c2ccc3c(N4CCOCC4)nc(N4C[C@@H](C)O[C@@H](C)C4)nc3n2)cc1CO [KU0063794] (first compound 2 µM, partner dose 0.02 µM) registered a cell count of 117%.
For `COc1cc2c(Oc3ccc4[nH]c(C)cc4c3F)ncnc2cc1OCCCN1CCCC1` [cediranib] + COC(=O)c1sccc1S(=O)(=O)Nc1ccc(Nc2ccccc2)cc1OC [GSK0660] (first compound 0.4 µM, partner dose 1 µM), the cell count was found to be 107%.
In turn, `CN(NC(=O)CC(=O)NN(C)C(=S)c1ccccc1)C(=S)c1ccccc1` + COc1ccc(-c2ccc3c(N4CCOCC4)nc(N4C[C@@H](C)O[C@@H](C)C4)nc3n2)cc1CO [KU0063794] (first compound 0.006 µM, partner dose 0.02 µM) yielded a cell count of 78.5%.
The same measure for `CCc1ccc(CCOc2ccc(CC3SC(=O)NC3=O)cc2)nc1` (stereo not given) [pioglitazone] + COc1ccc(COc2ccc(Cc3cnc(N)nc3N)cc2OC)cc1 [GW2580] (first compound 2 µM, partner dose 1 µM): 118%; for `Cc1ccc(NC(=O)c2cccc(N(C)C)c2)cc1NC(=O)c1ccc(O)cc1` + CCCCCCCCCCCC1=C(O)C(=O)C=C(O)C1=O [Embelin] (first compound 2 µM, partner dose 1.2 µM): 98.7%; for `Cc1ccc(NC(=O)c2cccc(N(C)C)c2)cc1NC(=O)c1ccc(O)cc1` + CCN(CC)CCCCNc1ncc2cc(-c3cc(OC)cc(OC)c3)c(NC(=O)NC(C)(C)C)nc2n1 [PD173074] (first compound 2 µM, partner dose 0.1 µM): 95.1%.
